Assay results published in PubChem BioAssay (Tox21).
Several values for one entry are separate records, joined by “and”; a condition that tells them apart may be missing. Identical values can stand only once. Inconclusive results, whose numbers are uncertain, are shown with a selection of clear calls. Where a call stands in place of a potency, no number is given. Potencies beside an inconclusive call are fits to weak or partial responses and may not hold up. Activity calls are given as the source filed them. Calls come from the whole dose curve; as a rule, active = well fitted activation curve with a large enough effect in the signal ratio in the repeat runs (not every such curve was filed as active); inconclusive = weak or mixed curves; inactive = flat fitted curve, though single readings scatter; the % refers to the signal ratio.

Assay: p53 small molecule agonists, cell-based qHTS assay (AID 1963582)
Details: HCT-116 p53RE-bla reporter, beta-lactamase FRET ratio, 16 h; series mostly up to 66 µM
How it was run: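 Read-out is beta-lactamase FRET fluorescence after 2 h at room temperature with LiveBLAzer B/G substrate. p53 response element-bla cells were treated 16 h at 37 C with compounds in DMSO, added 5 h after seeding.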
Potency is the fitted concentration of half-maximal effect; tags give direction and shape of the fitted curve or compound fluorescence and quenching.

| Compound | Potency |
| --- | --- |
| CC(C)=CCOC(=O)c1ccccc1 | inactive |
| Cc1ccccc1CCO | inactive |
| Cc1ccc(-n2nc(C(C)(C)C)cc2NC(=O)Nc2ccc(OCCN3CCOCC3)c3ccccc23)cc1 | inconclusive: 22.3 µM [rising, single point] |
| CCCCCCCC/C=C\CCCCCCCC(=O)OC | inconclusive: 0.163 µM [falling, single point] |
| CNC(=O)c1ccccc1Sc1ccc2c(/C=C/c3ccccn3)n[nH]c2c1 | active: 1.41 µM |
| CCOC(=O)OCC/C(SC(=O)OCC)=C(\C)N(C=O)Cc1cnc(C)nc1N | inactive |
| CCCCC1CCCCC(=O)O1 (configuration not stated) | inactive |
| CCCCCCCCCCC(CO)CCCCCCCC (configuration not stated) | inactive |
| O=C(O)c1ccc(S(=O)(=O)N(Cl)Cl)cc1 | inconclusive: 16.3 µM [rising, full curve] |
| CCC(Cc1ccccc1)(C(=O)c1ccc(N2CCOCC2)cc1)N(C)C (configuration not stated) | inactive |
| COc1cc(NC(=O)CC(C)=O)c(OC)cc1Cl | inactive and inconclusive: 3.2 nM [activator, full curve, poor fit] |
| CCC(O)OCCCOC (configuration not stated) | inactive |
| COc1cc(C=O)ccc1OC(=O)C(C)C | inactive |
| CCc1cccc(CC)c1 | inactive |
| C/C(=C\C(C)CC(C)CC(C)C)C1CC(=O)OC1=O (configuration not stated) | inconclusive: 16.2 µM [rising, partial curve, poor fit] |
| CCCCOC(=O)C(C)O (configuration not stated) | inactive |
| CCOC(=O)N1CCC(n2c(=O)[nH]c3cc(Cl)ccc32)CC1 | inconclusive: 5.61 µM [rising, full curve, poor fit] |
